Data from PubChem BioAssay AID624417 (National Center for Advancing Translational Sciences (NCATS), 2012).
In all, about 410,000 compounds went through this assay and about 6,400 (1.6%) were called active. Inconclusive means that the source gave no clear call. Such entries were picked first, then a sample of the others. Calls come from the whole dose curve; as a rule, active = well fitted inhibition curve with a large enough effect; inconclusive = small, poorly fitted or top-dose-only effect; inactive = no such curve, though single readings can be large or run the other way. No potency is given beside an inconclusive call; the fits are too rough.

target: Glucagon-like peptide 1 receptor (Homo sapiens) (UniProt P43220); assay: qHTS of GLP-1 Receptor Inverse Agonists (Inhibition Mode); conditions: HEK293 GLP-1R CRE-luciferase, luminescence, 24 h, GLP-1R form is constitutively active; activity change, negative = inhibition: at 38.3 µM (top of the series) unless noted; note: nearly all actives have a fitted effect of over 55% in size
UniProt P43220, sequence (P43220 whole entry, looked up): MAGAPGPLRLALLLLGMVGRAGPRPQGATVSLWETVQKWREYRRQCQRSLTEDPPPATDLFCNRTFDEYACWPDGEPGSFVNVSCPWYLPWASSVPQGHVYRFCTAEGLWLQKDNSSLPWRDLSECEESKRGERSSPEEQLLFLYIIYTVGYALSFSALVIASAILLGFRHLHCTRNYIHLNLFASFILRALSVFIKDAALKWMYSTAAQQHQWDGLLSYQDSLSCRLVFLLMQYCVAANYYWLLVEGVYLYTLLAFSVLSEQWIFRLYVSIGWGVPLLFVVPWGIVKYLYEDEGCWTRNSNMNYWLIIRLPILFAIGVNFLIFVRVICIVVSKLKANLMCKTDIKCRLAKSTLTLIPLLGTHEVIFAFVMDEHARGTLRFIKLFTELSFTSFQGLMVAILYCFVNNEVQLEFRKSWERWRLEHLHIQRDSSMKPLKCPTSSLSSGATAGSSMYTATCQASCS
Procedure, shortened: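 HEK293 cells stably co-expressing constitutively active GLP-1R and a cAMP-responsive luciferase reporter were seeded in DMEM with 10% Nu serum, given compounds after 12 h, and incubated 24 h at 37 deg C. Luminescence was then read.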
% is set by controls: 0 for no effect and ±100 for the full control effect; potency is the fitted concentration of half-maximal effect; tags give direction and shape of the fitted curve.

Structure (SMILES)	Potency	activity change, negative = inhibition
Cc1ccc2[nH]c3c(c2c1)CN(C(=O)CN1c2ccc(F)cc2CCC1C)CC3 (centres undefined)	inconclusive [inhibitor, partial curve, poor fit]	–
COc1cc2ccccc2cc1C(=O)Nc1ccc(C)cc1	inconclusive [inhibitor, partial curve, poor fit]	–
Cc1ccc(NC(=O)CN(c2ccc(Cl)cc2)S(=O)(=O)c2cc([N+](=O)[O-])ccc2Cl)c(C)c1	inconclusive [inhibitor, partial curve, poor fit]	–
CCS(=O)(=O)c1nc(S(=O)(=O)c2ccc(C)cc2)c(N2CC(C)CC(C)C2)s1 (centres undefined)	inconclusive [inhibitor, partial curve, poor fit]	–
CC(C)c1ccc(NC(=O)c2cc(S(=O)(=O)NCCc3ccccc3)ccc2F)cc1	inconclusive [inhibitor, partial curve, poor fit]	–
O=C1Cc2cc(S(=O)(=O)Nc3cccc(C(F)(F)F)c3)cc3c2N1CCC3	inconclusive [inhibitor, partial curve]	–
Cc1ccc(S(=O)(=O)N2[C@@H](c3ccccc3F)C(C(=O)O)=CC[C@H]2c2cccs2)cc1	inconclusive [inhibitor, single point]	–
CCn1c(SCc2ccccc2)nnc1-c1cccs1	inconclusive [inhibitor, single point]	–
CCOc1ccc(S(=O)(=O)N2CCOCC2)c2ccccc12	–	inactive: -3.61%
COc1ccc(-c2[nH]ncc2Oc2ccccc2OC)c(O)c1	inconclusive [inhibitor, single point]	–
O=C(CN(CCc1ccccc1)S(=O)(=O)c1ccc(Br)cc1)N/N=C/c1ccccc1C(=O)O	inconclusive [inhibitor, partial curve]	–
COc1ccc(NC(=O)CN2C(=O)C(c3ccccc3)=NC23CCC(C)CC3)cc1Cl (centres undefined)	inconclusive [inhibitor, partial curve, poor fit]	–
CN(C)S(=O)(=O)N(CC(=O)NCCSCc1ccc(Cl)cc1Cl)c1ccccc1	inconclusive [inhibitor, single point]	–
COc1cc(C(=O)Nc2ccc(Oc3ncnc4sc(-c5ccccc5)cc34)cc2)cc(OC)c1OC	–	inactive: 0%
COc1cccc(/C=N/Nc2nccnc2Cl)c1O	inconclusive [inhibitor, full curve, poor fit]	–
C/C(=N\NC(=O)CCCOc1ccc(Cl)cc1C)c1ccc(C)o1	inconclusive [inhibitor, partial curve, poor fit]	–
O=C(NCc1ccccc1Cl)C1CCCN1S(=O)(=O)c1ccccc1F (centres undefined)	inconclusive [inhibitor, full curve, poor fit]	–
CCOC(=O)c1c(NC(=O)CSc2nnc(-c3ccco3)o2)sc(C)c1C	–	inactive: 0%
CSc1ccc(CCNC(=O)C2CCCN(S(=O)(=O)N(C)c3ccc(F)cc3)C2)cc1 (centres undefined)	inconclusive [inhibitor, single point]	–
COc1ccccc1NC(=O)C(=O)N/N=C(\C)CC(=O)Nc1ccc(OCc2ccccc2)cc1	inconclusive [inhibitor, single point]	–

Structure (SMILES)	Potency	activity change, negative = inhibition
COc1ccccc1Nc1nc(N)nc(CSc2nc(C)cc(C)n2)n1	–	inactive: 38.8%
CN(C)Cc1ccccc1CNC(=O)c1cccc(S(=O)(=O)Nc2ccc3c(c2)OCO3)c1	inconclusive [inhibitor, single point]	–
CCOCCCNC(=O)CN1C(=O)CCn2nc(-c3cccn3C)cc21	–	inactive: -1.48%
CN(CC(=O)Nc1ccc(Cl)c(Cl)c1)C(=O)/C=C/c1ccc(F)cc1	inconclusive [inhibitor, partial curve, poor fit]	–
CCC1(c2ccc(F)cc2)NC(=O)N(CC(=O)Nc2cccc(S(=O)(=O)N3CCCCC3)c2)C1=O (centres undefined)	inconclusive [inhibitor, single point]	–
Cc1ccccc1NC(=O)CCC(=O)OCC(=O)c1ccc(-c2ccccc2)cc1	–	inactive: 12.2%
COc1cc(CCNC(=O)c2ccccc2NC(=O)C2=C(C)OCCS2)cc(OC)c1OC	inconclusive [inhibitor, full curve, poor fit]	–
Cc1cc2c(=Cc3ccc(N(C)C)cc3)c3ccccc3n2[n+]1C	inconclusive [inhibitor, partial curve]	–
Cc1nn(CC(C)C)c(Cl)c1C(=O)N(C)CC(=O)Nc1ccc(Cl)cc1	inconclusive [inhibitor, single point]	–
CC(C)C(c1nnnn1Cc1ccc(F)cc1)N1CCN(c2ccc(O)cc2)CC1 (centres undefined)	inconclusive [inhibitor, partial curve, poor fit]	–
CC(C)CNS(=O)(=O)c1cc(C(=O)N2CC(C)OC(C)C2)c(Cl)cc1Cl (centres undefined)	–	inactive: 0%
C=CCNC(=S)N/N=C/c1ccc(C)c([N+](=O)[O-])c1	inconclusive [inhibitor, partial curve, poor fit]	–
CCc1cnc(Nc2nc(C(N)Cc3ccc(F)cc3)cs2)nc1 (centres undefined)	inconclusive [inhibitor, single point]	–
COc1ccc(N(CC(=O)Nc2cc(Cl)ccc2OC)S(=O)(=O)c2c(C)noc2C)cc1	active: 4.47 µM	–
CC(C)(C)c1ccc(NC(=O)N2CCCN(c3c(Cl)cncc3Cl)CC2)cc1	inconclusive [inhibitor, full curve, poor fit]	–
CN(C)S(=O)(=O)N(CC(=O)Nc1ccc2ccccc2c1)c1ccccc1	inconclusive [inhibitor, partial curve, poor fit]	–
CN1CCC/C1=C/C=C1\SC(=S)NC1=O	–	inactive: 13.5%
NC(=O)c1nsc(C(=O)N(c2ccccc2F)C(C(=O)NCc2ccccc2)c2ccc(O)cc2)c1N (centres undefined)	inconclusive [inhibitor, partial curve, poor fit]	–
Cc1c(N=Cc2cc(Br)cc(Br)c2O)cccc1C(=O)O	inconclusive [inhibitor, partial curve, poor fit]	–
